Substitutions are numbered along the chain they refer to. Numbers in names are those of the source. ± gives the standard deviation of the averaged measurements. Laboratory Escherichia coli strains with one amino-acid change in an essential protein, pooled on minimal glucose agar with carbenicillin or gentamicin at twice the control MIC (plus kanamycin and chloramphenicol for the plasmids), 48 h. Fold change of barcode share against drug-free plates; higher = less susceptible. Active = above 20 in both replicates (the paper's putatively resistant). '<' = one read or none on drug, '>' = one read or none on a drug-free plate. Shares are relative, so most strains fall below 1 when a few take over. Listed are strains with at least 15 reads on both drug-free plates, and hits; most hits rest on fewer reference reads. Replicate rank correlation about 0.5. Edits are read from barcodes.
B1: metA V141W (protein)
chain: MPIRVPDELPAVNFLREENVFVMTTSRASGQEIRPLKVLILNLMPKKIETENQFLRLLSNSPLQVDIQLLRIDSRESRNTPAEHLNNFYCNFEDIQDQNFDGLIVTGAPLGLVEFNDVAYWPQIKQVLEWSKDHVTSTLFWCWAVQAALNILYGIPKQTRTEKLSGVYEHHILHPHALLTRGFDDSFLAPHSRYADFPAALIRDYTDLEILAETEEGDAYLFASKDKRIAFVTGHPEYDAQTLAQEFFRDVEAGLDPDVPYNYFPHNDPQNTPRASWRSHGNLLFTNWLNYYVYQITPYDLRHMNPTLD
B2: metA V141Q (protein)
chain: B1 chain with W141Q
B3: aroD L78A (protein)
chain: MKTVTVKDLVIGTGAPKIIVSLMAKDIASVKSEALAYREADFDILEWRVDHYADLSNVESVMAAAKILRETMPEKPLAFTFRSAKEGGEQAISTEAYIALNRAAIDSGLVDMIDLELFTGDDQVKETVAYAHAHDVKVVMSNHDFHKTPEAEEIIARLRKMQSFDADIPKIALMPQSTSDVLTLLAATLEMQEQYADRPIITMSMAKTGVISRLAGEVFGSAATFGAVKKASAPGQISVNDLRTVLTILHQA
B4: aroD L78W (protein)
chain: B3 chain with A78W
B5: metA F285A (protein)
chain: B1 chain with W141V, F285A
B6: metA F285W (protein)
chain: B1 chain with W141V, F285W
B7: metB V211A (protein)
chain: MTRKQATIAVRSGLNDDEQYGCVVPPIHLSSTYNFTGFNEPRAHDYSRRGNPTRDVVQRALAELEGGAGAVLTNTGMSAIHLVTTVFLKPGDLLVAPHDCYGGSYRLFDSLAKRGCYRVLFVDQGDEQALRAALAEKPKLVLVESPSNPLLRVVDIAKICHLAREVGAVSVVDNTFLSPALQNPLALGADLVLHSCTKYLNGHSDVVAGVAIAKDPDVVTELAWWANNIGVTGGAFDSYLLLRGLRTLVPRMELAQRNAQAIVKYLQTQPLVKKLYHPSLPENQGHEIAARQQKGFGAMLSFELDGDEQTLRRFLGGLSLFTLAESLGGVESLISHAATMTHAGMAPEARAAAGISETLLRISTGIEDGEDLIADLENGFRAANKG
B8: metB V211W (protein)
chain: B7 chain with A211W
B9: metB V211Q (protein)
chain: B7 chain with A211Q
B10: metB V211D (protein)
chain: B7 chain with A211D
B11: aroD L78Q (protein)
chain: B3 chain with A78Q
B12: metB V211P (protein)
chain: B7 chain with A211P
B13: metB I80A (protein)
chain: B7 chain with I80A, A211V
B14: metB I80W (protein)
chain: B7 chain with I80W, A211V

Biological target: Escherichia coli (laboratory strain)
Experiment: barcode share on antibiotic plates over drug-free plates; higher = less susceptible
Description: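 A pool of E. coli strains, each edited to carry one amino-acid change in an essential protein, was grown for 48 h on minimal glucose agar with or without antibiotic; strain barcodes were sequenced; mean of two replicates.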

[1] = antibiotic: carbenicillin, 2× MIC (3.1 µg/mL)
[2] = antibiotic: gentamicin, 2× MIC (MIC 0.45 µg/mL)

| Protein | fold change of barcode share [1] | fold change of barcode share [2] |
| --- | --- | --- |
| B1 | 1.15 ± 0.44 | – |
| B2 | 0.718 ± 0.048 | 0.0128 ± 0.0081 |
| B3 | 0.325 ± 0.11 | < 0.00633 |
| B4 | 0.239 ± 0.11 | < 0.0084 |
| B5 | 0.263 ± 0.021 | < 0.0105 |
| B6 | 0.348 ± 0.074 | – |
| B7 | 0.427 ± 0.23 | 0.00409 ± 0.00065 |
| B8 | 0.402 ± 0.12 | 0.00411 ± 0.0038 |
| B9 | 0.50986 ± 6.4e-05 | 0.0111 ± 0.0033 |
| B10 | 0.896 ± 0.079 | 0.0387 ± 0.038 |
| B11 | 0.41 ± 0.14 | < 0.0117 |
| B12 | 1.43 ± 0.85 | 0.0473 ± 0.016 |
| B13 | 0.646 ± 0.26 | 0.0098 ± 0.005 |
| B14 | 0.639 ± 0.092 | 0.0185 ± 0.0055 |

Reference: the supplement of paper PMC11876631
